From PubChem BioAssay AID1461 (National Center for Advancing Translational Sciences (NCATS), 2008)
In all, about 220,000 compounds went through this assay and about 2,300 (1%) were called active. This list was built around the results that the source calls inconclusive (neither active nor inactive); the mix of calls is not that of the screen. The call rests on the fitted dose curve; in most records, active means well fitted inhibition curve with a large enough effect; inconclusive means small, poorly fitted or top-dose-only effect, or effect the other way; inactive means no such curve, though single readings can be large or run the other way. No potency is given beside an inconclusive call; the fits are too rough.

molecular target: Neuropeptide S receptor (Homo sapiens) (UniProt Q6W5P4); assay: qHTS Assay for Antagonists of the Neuropeptide S Receptor: cAMP Signal Transduction; conditions: CHO-NPSR cells, cAMP TR-FRET, antagonist mode; activity change, negative = inhibition: at 38.3 µM (top of the series) unless noted; further: nearly all actives have a fitted effect of over 50% in size
On the % scale 0 is the no-effect control and ±100 the full control effect; potency means the concentration at half of the fitted maximal effect; tags describe the fitted curve by direction and shape.

Sequence of UniProt Q6W5P4 (Q6W5P4 whole entry, looked up): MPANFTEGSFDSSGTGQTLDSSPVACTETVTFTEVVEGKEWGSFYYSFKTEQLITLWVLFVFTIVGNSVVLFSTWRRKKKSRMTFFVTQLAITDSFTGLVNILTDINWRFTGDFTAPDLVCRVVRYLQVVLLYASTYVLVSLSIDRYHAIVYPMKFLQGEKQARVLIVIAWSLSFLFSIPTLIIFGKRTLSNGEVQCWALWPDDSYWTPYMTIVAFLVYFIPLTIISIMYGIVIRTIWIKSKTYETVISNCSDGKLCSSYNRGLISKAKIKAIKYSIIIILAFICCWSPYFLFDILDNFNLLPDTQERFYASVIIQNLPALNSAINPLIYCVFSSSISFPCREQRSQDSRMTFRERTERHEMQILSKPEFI

**Q.** With CC1OC(O[C@H]2CC[C@]3(C)C4C=C[C@]56OC[C@@]7(CC[C@@H](C)[C@H](C)C75)[C@H](O)C[C@@]6(C)[C@]4(C)CC[C@H]3C2(C)C)C(OC2OC(CO)C(O)C(O)C2OC2OCC(O)C(O)C2O)C(O)C1O (some centres not stated) as the compound, how does the Potency read?
**A.** The Potency was inconclusive [inhibitor, single point].

**Q.** How did the Potency turn out when Oc1c(C=Nc2cccnc2)sc2ccccc12 was run?
**A.** Its Potency is inconclusive [inhibitor, single point].

**Q.** For COc1ccccc1-c1cc(C(F)(F)F)nc(S(=O)(=O)CCCC(=O)N2CCOCC2)n1, which Potency is on record?
**A.** The Potency was inconclusive [inhibitor, single point].

**Q.** O=C(Nc1ccccc1F)NC1CCCc2ccccc21 (configuration not stated) was tested. Which Potency did it give?
**A.** The Potency was inconclusive [activator, single point].

**Q.** With COc1ccc(N2C(=O)CC(N3CCN(c4nc5ccccc5s4)CC3)C2=O)cc1 (configuration not stated) as the compound, how does the “activity change, negative = inhibition” value read?
**A.** The value was inactive: -8.47% [at 46.1 µM].

**Q.** Which Potency does the source give for O=C(N/N=C/c1ccco1)C1CC1(c1ccccc1)c1ccccc1 (configuration not stated) here?
**A.** The Potency was inconclusive [inhibitor, partial curve].

**Q.** For COc1ccc2c(c1)N(C)/C(=C1/SC(=NCc3ccccc3)N(c3ccccc3)C1=O)S2, which Potency is on record?
**A.** Its Potency is inconclusive [activator, single point].

**Q.** For CCOC(=O)c1cc2sc(C)cc2n1CCCN1C(=O)c2ccccc2C1=O, which Potency is on record?
**A.** The Potency was inconclusive [inhibitor, partial curve].

**Q.** With C=CCn1c(CCNC(=O)c2ccc(Cl)c(Cl)c2)nnc1SCCOc1ccc(OC)cc1 as the compound, how does the Potency read?
**A.** The Potency was inconclusive [inhibitor, single point].

**Q.** For COc1ccc(NC(=O)c2cc3c(-c4ccc(OC)c(OC)c4)nn(C)c3s2)cc1OC, which Potency is on record?
**A.** Its Potency is inconclusive [inhibitor, single point].

**Q.** Which Potency does the source give for COc1ccc(/C=C/C(=O)c2ccc3c(c2)OCCO3)cc1[N+](=O)[O-] here?
**A.** Its Potency is inconclusive [inhibitor, single point].

**Q.** How did the Potency turn out when CCn1c(SCC(=O)Nc2ccc(OCc3ccccc3)cc2)nnc1-c1ccco1 was run?
**A.** Its Potency is inconclusive [inhibitor, partial curve].

**Q.** How did the Potency turn out when COc1ccc(OC)c(C2=Nn3c(nnc3-c3ccco3)SC2)c1 was run?
**A.** Its Potency is inconclusive [inhibitor, single point].

**Q.** With O=C(CNc1cccc2ccccc12)N/N=C/c1cccc(Oc2ccccc2)c1 as the compound, how does the “activity change, negative = inhibition” value read?
**A.** Its value is inactive: -12.1%.

**Q.** For O=c1nc(/C=C/c2cc([N+](=O)[O-])ccc2Cl)cc(C(F)(F)F)[nH]1, which Potency is on record?
**A.** Its Potency is inconclusive [inhibitor, single point].

**Q.** For CCOc1ccc(-c2nc(CSCC(=O)NC3CCCc4ccccc43)c(C)o2)cc1 (configuration not stated), which Potency is on record?
**A.** The Potency was inconclusive [inhibitor, single point].

**Q.** With Clc1ccccc1-c1nn2c(Cn3cnc4ccccc43)nnc2s1 as the compound, how does the “activity change, negative = inhibition” value read?
**A.** Its value is inactive: -20.9% [at 46.1 µM].

**Q.** How did the Potency turn out when CCCCCCN(CCCCCC)C(=O)Cc1c(-c2ccc(F)cc2)[nH]c2ccccc12 was run?
**A.** Its Potency is inconclusive [inhibitor, partial curve].

**Q.** How did the Potency turn out when O=C1c2ccccc2C(=O)N1CCc1nc2ccccc2c(=O)n1Cc1ccco1 was run?
**A.** The Potency was inconclusive [inhibitor, partial curve, poor fit].

**Q.** Which Potency does the source give for Cc1cc(C)cc(N=Cc2[nH]c3ccc(Br)c(Cl)c3c2O)c1 here?
**A.** Its Potency is inconclusive [inhibitor, single point].

**Q.** With O=C(COc1ccc(S(=O)(=O)NC2CCCCC2)cc1)N1CCN(c2cccc(Cl)c2)CC1 as the compound, how does the “activity change, negative = inhibition” value read?
**A.** Its value is inactive: -15.7% [at 46.1 µM].

**Q.** Which Potency does the source give for CC(C)C(=O)N1CCN(c2ccc(NC(=O)c3ccc([N+](=O)[O-])o3)cc2Cl)CC1 here?
**A.** Its Potency is active: 3.16 µM.

**Q.** How did the Potency turn out when COc1cccc2sc(Nc3nc(-c4ccccn4)cs3)nc12 was run?
**A.** The Potency was active: 1 µM.

**Q.** How did the “activity change, negative = inhibition” value turn out when C=CCOC(=O)C1=C(C)NC(=S)NC1c1cccs1 (configuration not stated) was run?
**A.** The value was inactive: 16.4%.

**Q.** For CC(C)=CCCC(C)NC(=O)NC1CCCCC1 (configuration not stated), which “activity change, negative = inhibition” value is on record?
**A.** Its value is inactive: -3.17%.

**Q.** How did the “activity change, negative = inhibition” value turn out when N#Cc1c(-c2cccc(Br)c2)cc(-c2cccnc2)nc1N was run?
**A.** The value was inactive: -29.5%.

**Q.** Which “activity change, negative = inhibition” value does the source give for COCCNC(=O)/C(C#N)=C\c1ccc(CNS(=O)(=O)c2ccc(C)cc2)o1 here?
**A.** The value was inactive: -11.7%.

**Q.** Which Potency does the source give for CC(=O)N1c2ccccc2C(C)(C)C2CCC(C)CC21 (configuration not stated) here?
**A.** The Potency was inconclusive [inhibitor, single point].

**Q.** Cc1cccc(NC(=O)c2ccc3c(Cl)c4c(nc3c2)CCCC4)n1 was tested. Which Potency did it give?
**A.** Its Potency is inconclusive [inhibitor, single point].

**Q.** For CCN1/C(=C/c2ccc3cc(C)ccc3[n+]2CC)Sc2cc(C)c(C)cc21, which Potency is on record?
**A.** Its Potency is inconclusive [activator, partial curve].

**Q.** With Cc1ccc(NC(=O)CSc2ccccc2NC(=O)c2ccccc2Cl)cc1Cl as the compound, how does the Potency read?
**A.** Its Potency is inconclusive [inhibitor, single point].

**Q.** How did the Potency turn out when CCCCN(C(=O)c1cccc2c(=O)c(C)c(-c3ccccc3)oc12)c1ccccc1 was run?
**A.** Its Potency is inconclusive [inhibitor, single point].

**Q.** For Cc1noc(/C=C/N(C)C)c1S(=O)(=O)N1CCCC(C(=O)NCc2ccc(Cl)cc2)C1 (configuration not stated), which Potency is on record?
**A.** The Potency was inconclusive [inhibitor, single point].

**Q.** How did the Potency turn out when CCCN(c1ccc(C(C)C)cc1)S(=O)(=O)c1c(C)noc1C was run?
**A.** Its Potency is inconclusive [inhibitor, single point].

**Q.** CCC(NC(=O)c1cccc(Cn2nc(C)c([N+](=O)[O-])c2C)c1)c1ccc(C(C)C)cc1 (configuration not stated) was tested. Which Potency did it give?
**A.** Its Potency is inconclusive [inhibitor, single point].

**Q.** For COc1ccc([N+](=O)[O-])cc1NC1CCCCC1, which Potency is on record?
**A.** The Potency was inconclusive [inhibitor, single point].

**Q.** How did the Potency turn out when c1ccc(CN2CCN(c3ncnc4c3[nH]c3ccccc34)CC2)cc1 was run?
**A.** The Potency was inconclusive [inhibitor, single point].

**Q.** Which Potency does the source give for Fc1ccccc1C1c2[nH]c3ccccc3c2CCN1CCCn1cccn1 (configuration not stated) here?
**A.** Its Potency is inconclusive [activator, single point].

**Q.** With Cc1cc(Sc2nnc(N)s2)c2ccccc2n1 as the compound, how does the Potency read?
**A.** The Potency was inconclusive [activator, single point].

**Q.** With O=C1N/C(=N/O)S/C1=C/c1cccnc1 as the compound, how does the “activity change, negative = inhibition” value read?
**A.** Its value is inactive: -2.41%.

**Q.** CCOC(=O)c1c(C)[nH]c(C=Nc2ccc(OC)cc2)c1O was tested. Which Potency did it give?
**A.** Its Potency is inconclusive [inhibitor, partial curve].

**Q.** Which Potency does the source give for Cc1[nH]c2ccc(-c3nnc(SCC(=O)NCc4ccco4)n3Cc3ccccc3)cc2c1C here?
**A.** The Potency was inconclusive [inhibitor, single point].
